# According to the supplement of paper PMC8728848:
# The list shows a part of the results.
# Legend:
# Assay in all cases: glycan array binding signal (z-score within array); higher = stronger binding
# Settings in all cases: glycan notation: IUPAC condensed, linker removed
# [1] = target: Neu5Ac(a2-8)Neu5Ac(a2-3)[GalNAc(b1-4)]Gal(b1-4)Glc
# Method in brief: (§1)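 From the Consortium for Functional Glycomics database, 3228 arrays were curated, keeping only those whose protein sequence was available. Binding is given as a within-array Z-score averaged across arrays sharing a protein sequence and across linkers. Negative Z-scores can be read as non-binding.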
# [2] = target: Neu5Ac(a2-8)Neu5Ac(a2-8)Neu5Ac
# Method in brief: as §1
# [3] = target: Neu5Ac(a2-8)Neu5Ac(a2-8)Neu5Ac(a2-3)Gal(b1-4)Glc
# Method in brief: as §1
# [4] = target: Neu5Ac(a2-8)Neu5Ac(a2-8)Neu5Ac(a2-3)[GalNAc(b1-4)]Gal(b1-4)Glc
# Method in brief: as §1
# [5] = target: Neu5Ac(a2-8)Neu5Ac(a2-8)Neu5Ac(a2-8)Neu5Ac(a2-3)[GalNAc(b1-4)]Gal(b1-4)Glc
# Method in brief: as §1
# [6] = target: Neu5Ac(b1-6)GalNAc
# Method in brief: as §1
# [7] = target: Neu5Ac(b2-6)Gal(b1-4)GlcNAc
# Method in brief: as §1
# [8] = target: Neu5Ac9Ac(a2-6)Gal(b1-4)GlcNAc
# Method in brief: as §1
# [9] = target: Neu5Gc(a2-3)Gal(b1-3)GlcNAc
# Method in brief: as §1
# [10] = target: Neu5Gc(a2-3)Gal(b1-3)[Fuc(a1-4)]GlcNAc
# Method in brief: as §1
# [11] = target: Neu5Gc(a2-3)Gal(b1-4)Glc
# Method in brief: as §1
# [12] = target: Neu5Gc(a2-3)Gal(b1-4)GlcNAc
# Method in brief: as §1
# [13] = target: Neu5Gc(a2-3)Gal(b1-4)[Fuc(a1-3)]GlcNAc
# Method in brief: as §1
# [14] = target: Neu5Gc(a2-6)Gal(b1-4)GlcNAc
# Method in brief: as §1
# [15] = target: Neu5Gc(a2-6)GalNAc
# Method in brief: as §1
binder,measurement,setting,value
FaeGab (Escherichia coli) (protein) WMTGDFNGSVDIGGSITADDYRQKWEWKVGTGLNGFGNVLNDLTNGGTKLTITVTGNKPILLGRTKEAFATPVSGGVDGIPQIAFTDYEGASVKLRNTDGETNKGLAYFVLPMKNAEGTKVGSVKVNASYAGVFGKGGVTSADGELFSLFADGLRAIFYGGLTTTVSGAALTSGSAAAARTELFGSLSRNDILGQIQRVNANITSLVDVAGSYREDMEYTDGTVVSAAYALGIANGQTIEATFNQAVTTSTQWSAPLNVAITYY,glycan array binding signal (z-score),[1],-0.407
same,glycan array binding signal (z-score),[2],-0.385
same,glycan array binding signal (z-score),[3],-0.364
same,glycan array binding signal (z-score),[4],-0.444
same,glycan array binding signal (z-score),[5],-0.352
same,glycan array binding signal (z-score),[6],0.044
same,glycan array binding signal (z-score),[7],-0.473
same,glycan array binding signal (z-score),[8],-0.533
same,glycan array binding signal (z-score),[9],-0.469
same,glycan array binding signal (z-score),[10],-0.192
same,glycan array binding signal (z-score),[11],-0.472
same,glycan array binding signal (z-score),[12],-0.461
same,glycan array binding signal (z-score),[13],-0.455
same,glycan array binding signal (z-score),[14],-0.5
same,glycan array binding signal (z-score),[15],0.239
